# From article PMC12136788
# The list shows a part of the results.
# B1: 23559281_23559821_326_CDS_ENSG00000100813_ENST00000605057|human|control|control (ssRNA)
# RNA: GGGAGUUCUACAGUCCGACGAUCCAUCUCGUCCUCCGACUCAGCUGAAGCUUCUUCAAGUUCUGCAGCUUCUCGAGCUUCACGUUCCAGACGCUGCCUAAGUAGCUCCUGCUGCUUUUCCAGAUACUGUUUUAUGAAACUGUUCAACAGAGGAUUGAGCAUCA
# B2: chr2:9570881:9570882:+_ENSG00000119203_ENST00000238112|hu_mus|hu_hu_hu_mus_False|88_108 (ssRNA)
# RNA: GGGAGUUCUACAGUCCGACGAUCACUUGUCUUCUGUAGGAACCAGGGCAGAGCUCCACAGUGAUCCAAAUGGAAAUGACUGAUCAACAGAAGGUCGAUCUCAGCUGGGUCGAUAAGGUCAAUGUAAGGAAGGGCAUCCAUUCCCAACAGAGGAUUGAGCAUCA
# B3: chr11:20202655:20202656:-_ENSMUSG00000020142_ENSMUST00000109594|mus_hu|FALSE|FALSE (ssRNA)
# RNA: GGGAGUUCUACAGUCCGACGAUCUGUAGUUAAUAGUUAAGUUCCCCUCUAUCCAAACACAAACUUGCUUGGCUUGGAGCUAAAACUAUACACACACGCACACACACACAUGCAUAUACACAACACACAUGUGUGUAUAGAUAUCAACAGAGGAUUGAGCAUCA
# B4: chr16:17153567:17153568:-_ENSMUSG00000038965_ENSMUST00000090192|mus_hu|FALSE|FALSE (ssRNA)
# RNA: GGGAGUUCUACAGUCCGACGAUCUGCACAGCAUCCUCCUGACUAGCAGGCCCCCCAUUUCGGGGCCACCACAGACCUGUGAUUAUAGGGCUUCUCUGUGCAGGCCAGGCCAGAGGUCAGUUACACACACUGACAUCAGGGCUUCAACAGAGGAUUGAGCAUCA
# B5: chr5:37680062:37680063:+_ENSMUSG00000029121_ENSMUST00000031004|mus_hu|mus_mus_mus_hu_False|8_78 (ssRNA)
# RNA: GGGAGUUCUACAGUCCGACGAUCUUUGGGUGUAGCUGGUACCUCGUACACAGGACCAUCGUACAUGCCCCUGGAAACCCCUUGCAAUCCAAAAACCUUAUUCCUGAUUUUGACGCGCUGGUACAGGUGCUCUGGGAACGCCUUCAACAGAGGAUUGAGCAUCA
# B6: 21397477_21397676_372_CDS_ENSMUSG00000048429_ENSMUST00000062125|mouse|control|control (ssRNA)
# RNA: GGGAGUUCUACAGUCCGACGAUCGCGGCCCGGUCGAGCUCGCGCCGCAGCCGCCGCGUCCCCGCACGCCUCAGCGUAGUCCCGGAGCAGCGCGCCGGCCCAGGUGCUCAGUCGCGUCCACAGCCCUGGCUUAACCGCCACCGUCAACAGAGGAUUGAGCAUCA
# B7: 127960156_127962624_351_CDS_ENSMUSG00000025366_ENSMUST00000026427|mouse|control|control (ssRNA)
# RNA: GGGAGUUCUACAGUCCGACGAUCAUCUGGGAAGCUGACCCAGGCAGGUAGUUCCCGGUGGCUCAUAUAAAGCGUCUCUGCGGUGAUCCGCUCCUCGUCAUCCAGCAGCUGCCUCGCUGCCCUCAGGCUCCGUUCUUUCCCAUCCAACAGAGGAUUGAGCAUCA
# B8: 95062980_95063100_2134_CDS_ENSMUSG00000022454_ENSMUST00000166170|mouse|control|control (ssRNA)
# RNA: GGGAGUUCUACAGUCCGACGAUCCCCCUCGUGCACGCAGUCCCCAGUGCAGUUCUUCCCAUGGGGACACCGGCAAUCGUAUCCCCCGUCCAAGUUGAAGCAAAUGGUGUCGUUGGUGCAGCUGUGCCUCCCAGUCCCGCAUUCCAACAGAGGAUUGAGCAUCA
# B9: 32537986_32538106_146_5pUTR_ENSMUSG00000029765_ENSMUST00000115096|mouse|control|control (ssRNA)
# RNA: GGGAGUUCUACAGUCCGACGAUCGCGCGGAGCUGCGGUGGUAGCAGCGACGGCGGCGGCUAGCGCUGCGGCGGCCAAGAGCGCGGCCGUAGUCCAAGCCGAGCCUCCCAGGCGCGUCCCCGGCCCCCCGGGCGGGCUGCUCGCCAACAGAGGAUUGAGCAUCA
# B10: 234363454_234365599_2382_CDS_ENSG00000077044_ENST00000264057|human|control|control (ssRNA)
# RNA: GGGAGUUCUACAGUCCGACGAUCCAGCAACUCUUUGGUUCCAAGAACUCCAUACCACAUCAUGUUCUUGGUUCGGCUCCUGCACUUCUCUGGGUGCUCAUCGCGCUUGUUGUUAAAGUCCAGGGAUAUCUUCGCAUCCAGGCCCAACAGAGGAUUGAGCAUCA
# B11: chr9:96246283:96246284:-_ENSMUSG00000032412_ENSMUST00000034983|mus_hu|FALSE|FALSE (ssRNA)
# RNA: GGGAGUUCUACAGUCCGACGAUCCUGAAGCAUAACCCACAUCGUGAAUGAGAAGAGUGCAGCCAGGAACCCAUAAAAAACUAGGUAGAAGAGCAAGAUCAAACCCCAGCUCUUGGCGGUGCGCCCCAGGAAUUCUCCGGUGGUCAACAGAGGAUUGAGCAUCA
# B12: chr15:91426070:91426071:+_ENSG00000140564_ENST00000268171|hu_hu|FALSE|FALSE (ssRNA)
# RNA: GGGAGUUCUACAGUCCGACGAUCGGCAGCCAGGGAGGAGCAGGGCGGACGGUGGGUGUGAGAACGUGGGUAGUCCAGCUGCUACCCCCAUUAAAAAUACAAAAACAAAUCAUCAGCAUCUAAAGUGAAAUAAUCACAAAGUGACAACAGAGGAUUGAGCAUCA
# B13: chr3:8560387:8560388:+_ENSMUSG00000027500_ENSMUST00000029002|perfect_dup|FALSE|FALSE (ssRNA)
# RNA: GGGAGUUCUACAGUCCGACGAUCCAUACAUUCCCCAUCCUGAUAUCGCAUGAUCCAUUAUAAUAUAGGCAGGGGGAUUUACUAUUGGUGGGGCGUGCCAGACCCUCCCUUGCUUCAGCCAGACAGUUCAACCUGGAGUUCCUUCAACAGAGGAUUGAGCAUCA
# B14: 151885107_151885811_1423_3pUTR_ENSMUSG00000028034_ENSMUST00000166984|mouse|control|control (ssRNA)
# RNA: GGGAGUUCUACAGUCCGACGAUCCUAAAGGAUUUACUGGGCCCCCAAUCUUCUCUUCUAUGAGUUGUCGAGCAUAGUCUAUUUGCUGUGGAGUGCCCCGAAUUGUAAAUAACUUCAUAUUGGGAUCUGCAUUAGGUGGAGGGCCAACAGAGGAUUGAGCAUCA
# B15: chr6:112015657:112015658:-_ENSG00000010810_ENST00000368667|hu_hu|FALSE|FALSE (ssRNA)
# RNA: GGGAGUUCUACAGUCCGACGAUCAGCAAUCUUGCAUAUGAGUCCAUUCCCCACUAGAAUGUUUGCUGAUCGCAGAUCUCUAUGGAUAUAAUUCAUGCGCUCGAUGUAAGCCAUUCCUGCAGCCACCUGUGCUGCCAUGUCCACCAACAGAGGAUUGAGCAUCA
# B16: 49545228_49545348_462_3pUTR_ENSG00000101126_ENST00000396029|human|control|control (ssRNA)
# RNA: GGGAGUUCUACAGUCCGACGAUCACGGAGUCCAGAUCCUCAAAAUGGUAGUACAGGGCAUAACCACUAGGCCACCUAUCAGUUCAGUACAAAAAGUACAACCCUGCGCAUCAUGGUGUAAAAGCUGGGGCCUAGGUUUCGCAUCAACAGAGGAUUGAGCAUCA
# B17: chr7:106494041:106494042:-_ENSMUSG00000070436_ENSMUST00000094154|mus_hu|FALSE|FALSE (ssRNA)
# RNA: GGGAGUUCUACAGUCCGACGAUCCUUGGAUUGAUAGCAACAAAGGCUCAUGUUCCCCCUUCCCUCCCUAUCUUUGAAGAACUAAAAAAGGAAGAAACAAAACAAAAAGUUCAUCCCCACAACGCCAGACACGAUGCUUCUUGACAACAGAGGAUUGAGCAUCA
# B18: 120360295_120360415_1526_CDS_ENSMUSG00000027288_ENSMUST00000055241|mouse|control|control (ssRNA)
# RNA: GGGAGUUCUACAGUCCGACGAUCAGGGGUUGGAAGUGGAAGGAGUGGGGAUUUCAGUAAUGGAAUCUUAUUUGACUUCUGAUGUGGCUCAGAUUGCUCGGUAAUGGGGCAAGCUCUUGGCACCUCACAGAAAGCAGUGCCAUCCAACAGAGGAUUGAGCAUCA
# B19: chr2:37458628:37458629:-_ENSMUSG00000026915_ENSMUST00000072186|mus_mus|motif|central (ssRNA)
# RNA: GGGAGUUCUACAGUCCGACGAUCCUUAUACUGAAGCCCGGGCCUGAUCUGAUUUAAUCUCAUUAGUGCAUUCAUAAGGUCGGUUGCUUUACUAUCUAGAAUUUUCCUUAAGUUUCGUUUCAUCUUCUUGUUGGGAUCUUUAUCCAACAGAGGAUUGAGCAUCA
# B20: chr5:38546887:38546888:-_ENSMUSG00000029126_ENSMUST00000031009|mus_hu|FALSE|FALSE (ssRNA)
# RNA: GGGAGUUCUACAGUCCGACGAUCGACCAACACGGAGACCUUAAACCUCUCGGUGACACCCUCCGUGAUGCUGACGGUGAACUCAGCAAUUUGGGGAGGACGUGCUUUCCCUUUCUUGCGGUCAGGUUCAUACUCGGUCUUAGUCAACAGAGGAUUGAGCAUCA
# B21: chr5:135103553:135103554:-_ENSMUSG00000040731_ENSMUST00000036125|perfect_dup|motif|central (ssRNA)
# RNA: GGGAGUUCUACAGUCCGACGAUCGUCUUUGUCUCUGACUAGCCGUACACUCCUUAUGCUGAGAUCCUUAAAGAUAGCAUCGGUGUCGCCCUGAACCGUAUUGAAAGGUAGAUUUCCUACGUAUGCUGUGUAGGGGGGCUCUGUCAACAGAGGAUUGAGCAUCA
# B22: chr14:89338683:89338684:+_ENSG00000165533_ENST00000346301|hu_hu|hu_hu_hu_mus_False|58_108 (ssRNA)
# RNA: GGGAGUUCUACAGUCCGACGAUCGUGGUUGUUGUUGACCAGGGCCAGCCUGAAGCAUUGGUGGGCCAAGUUUGUAUCUCCUAUUCCCACAGCUAUGUGCCCCAGGUUGUACCAGACAUCAGCUGCCUCUUCUUCAUUUUCAGCCAACAGAGGAUUGAGCAUCA
# Biological target: T1, UNK ZnF1-3 (human, UniProt Q9C0B0 31-174)
# T1 sequence: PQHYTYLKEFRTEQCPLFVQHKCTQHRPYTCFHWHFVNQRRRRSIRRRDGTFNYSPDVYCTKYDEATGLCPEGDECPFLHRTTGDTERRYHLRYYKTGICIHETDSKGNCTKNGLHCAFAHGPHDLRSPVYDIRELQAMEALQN
# Assay: nsRBNS (natural sequence RNA bind-n-seq); RBNS binding buffer (assumed for nsRBNS): 25 mM Tris pH 7.5, 150 mM KCl, 3 mM MgCl2, 0.01% Triton X-100, 500 ug/ml BSA, 20 U/ml SUPERase-In, 4 C; UNK is unkempt and MSI1 is Musashi-1; names of the RNAs are library labels; protein concentration not given here; high values mean tight binding
row,Binder,binding signal
1,B1,0.453 enrichment R
2,B2,1.52 enrichment R
3,B3,0.28 enrichment R
4,B4,0.965 enrichment R
5,B5,0.702 enrichment R
6,B6,0.759 enrichment R
7,B7,0.571 enrichment R
8,B8,1.01 enrichment R
9,B9,0.647 enrichment R
10,B10,0.751 enrichment R
11,B11,1.6 enrichment R
12,B12,1.67 enrichment R
13,B13,1.63 enrichment R
14,B14,1.34 enrichment R
15,B15,1.12 enrichment R
16,B16,1.08 enrichment R
17,B17,1.36 enrichment R
18,B18,1.07 enrichment R
19,B19,0.485 enrichment R
20,B20,0.499 enrichment R
21,B21,0.834 enrichment R
22,B22,0.492 enrichment R
